Measured values as given in the RNAGym collection of RNA variant scans (doi:10.1093/nar/gkz1192).
Read counts are not given, so values of variants with three or more changes are uncertain.

B1: CPEB3 Ribozyme (parent)
chain: UAACAGGGGGCCACAGCAGAAGCGUUCACGUCGCAGCCCCUGUCAGAUUCUGGUGAAUCUGCGAAUUCUGCUGUAUAUCUC

Variants of: B1
Assay: self-cleavage, relative activity (ratio to wild type); higher = more cleavage; in vitro, sequencing
In short: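 Barcoded CPEB3 ribozyme mutants, produced by rounds of error-prone PCR, self-cleaved while being transcribed with T7 RNA polymerase for 5 hours at 37°C and during a subsequent 15 min DNase I step before EDTA was added. Sequencing of template-switched cDNA on Illumina gave cleaved and total reads, and DNA sequencing assigned barcodes to variants. Each variant's relative activity is its cleaved/total read fraction divided by the unmutated ribozyme's fraction, averaged across three batches. A variant needed a minimum of 5 reads.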

Question: Which self-cleavage does the source give for UAACAGGGGGCCACAGCAGAAGCGCUCACGUCGCAGCCCCUGUCAGACUCUGGUGGGUUUGCGAAUUCUGCUGUAUAUCUC [U25C U48C A56G A57G C59U] here?
Answer: 0.14

Question: With UAACAGGGGGCCACAGCAGAAGCGCUCACGUCGCAGCCCCUGUCAGACUCUGGUGGAUCUGCGAAUUCUGCUGUUUAUCUC [U25C U48C A56G A75U] as the variant, how does the self-cleavage read?
Answer: 0.11

Question: For UAACAGGGGGCCACAGCAGAAGCGCUCACGUCGCAGCCCCUGUCAGACUCUGGUGAGUCUGCGAAUUCUGCUGUAUAUCUC [U25C U48C A57G], which self-cleavage is on record?
Answer: 0.17

Question: With UAACAGGGGGCCACAGCAGAAGCGCUCACGUCGCAGCCCCUGUCAGACUCUGGAGAAUCUGCGAGUUCUGCUGUAUCUCUC [U25C U48C U54A A65G A77C] as the variant, how does the self-cleavage read?
Answer: 0.19

Question: With UAACAGGGGGCCACAGCAGAAGCGCUCACGUCGCAGCCCCUGUCAGACUCUGGUGAAUCUGCGAAGUCUGCUGUAUACCUC [U25C U48C U66G U78C] as the variant, how does the self-cleavage read?
Answer: 0.06

Question: Which self-cleavage does the source give for UAACAGGGGGCCACAGCAGAAGCGCUCACGUCGCAGCCCCUGUCAGACUCUGGUGAAUCUGCGAAUACUGCUGUAUAUCGC [U25C U48C U67A U80G] here?
Answer: 0.06

Question: For UAACAGGGGGCCACAGCAGAAGCGCUCACGUCGCAGCCCCUGUCAGACUCUGGUGAAUCUGCGAAUUCUGCCGUAUACCCC [U25C U48C U72C U78C U80C], which self-cleavage is on record?
Answer: 0.09

Question: For UAACAGGGGGCCACAGCAGAAGCGCUCACGUCGCAGCCCCUGUCAGACUCUGGUGAAUCUGCGAAUUCUGCUGAAUUUCUC [U25C U48C U74A A77U], which self-cleavage is on record?
Answer: 0.19

Question: For UAACAGGGGGCCACAGCAGAAGCGCUCACGUCGCAGCCCCUGUCAGAUACUGGUGGAUCAGCGAAUUCUGCUGUAUACCUC [U25C U49A A56G U60A U78C], which self-cleavage is on record?
Answer: 0.18

Question: For UAACAGGGGGCCACAGCAGAAGCGCUCACGUCGCAGCCCCUGUCAGAUACUGGUGAAUAUGCGAAUUCUGCUGUAUAUCUC [U25C U49A C59A], which self-cleavage is on record?
Answer: 0.11

Question: With UAACAGGGGGCCACAGCAGAAGCGCUCACGUCGCAGCCCCUGUCAGAUACUGGUGAAUCUGCGAAUACUGCUGUAUAUCUC [U25C U49A U67A] as the variant, how does the self-cleavage read?
Answer: 0.08

Question: With UAACAGGGGGCCACAGCAGAAGCGCUCACGUCGCAGCCCCUGUCAGAUACUGGUGAAUCUGCGAAUCCUGCUGUAUAUCUC [U25C U49A U67C] as the variant, how does the self-cleavage read?
Answer: 0.04

Question: With UAACAGGGGGCCACAGCAGAAGCGCUCACGUCGCAGCCCCUGUCAGAUCCUGGAGAAUCUGCGAAUUCUGCGGUAUAUCCC [U25C U49C U54A U72G U80C] as the variant, how does the self-cleavage read?
Answer: 0.26

Question: For UAACAGGGGGCCACAGCAGAAGCGCUCACGUCGCAGCCCCUGUCAGAUCCUGGUGAAUCCGCGAAUUCUGUUGUAUAUCUC [U25C U49C U60C C71U], which self-cleavage is on record?
Answer: 0.14

Question: Which self-cleavage does the source give for UAACAGGGGGCCACAGCAGAAGCGCUCACGUCGCAGCCCCUGUCAGAUCCUGGUGAAUCUGCGAAUUCUGCCGUAUAUCUC [U25C U49C U72C] here?
Answer: 0.05

Question: For UAACAGGGGGCCACAGCAGAAGCGCUCACGUCGCAGCCCCUGUCAGAUUCAGGUGUAUCAGCGAACUCUGCUGUAUAUCUC [U25C U51A A56U U60A U66C], which self-cleavage is on record?
Answer: 0.06

Question: With UAACAGGGGGCCACAGCAGAAGCGCUCACGUCGCAGCCCCUGUCAGAUUCAGGUGAAUAUGCGAAUUCUGAUGUAUAUCUC [U25C U51A C59A C71A] as the variant, how does the self-cleavage read?
Answer: 0.07

Question: With UAACAGGGGGCCACAGCAGAAGCGCUCACGUCGCAGCCCCUGUCAGAUUCCGGUGAAUCUGCGAACUCUGCUGUAUAUCUC [U25C U51C U66C] as the variant, how does the self-cleavage read?
Answer: 0.28

Question: With UAACAGGGGGCCACAGCAGAAGCGCUCACGUCGCAGCCCCUGUCAGAUUCCGGUGAAUCUGCGAAUUCUGCGGUAUAUCUC [U25C U51C U72G] as the variant, how does the self-cleavage read?
Answer: 0.27

Question: With UAACAGGGGGCCACAGCAGAAGCGCUCACGUCGCAGCCCCUGUCAGAUUCUGGCGAAUCUGCGAGCUAUGCUGUAUAUCUC [U25C U54C A65G U66C C68A] as the variant, how does the self-cleavage read?
Answer: 0.18

Question: Which self-cleavage does the source give for UAACAGGGGGCCACAGCAGAAGCGCUCACGUCGCAGCCCCUGUCAGAUUCUGGCGAAUCUGGGAAUUCUGCUGUAUAUCUC [U25C U54C C62G] here?
Answer: 0.18

Question: With UAACAGGGGGCCACAGCAGAAGCGCUCACGUCGCAGCCCCUGUCAGAUUCUGGCGAAUCAGCGAAUUCUGCUGUAUAUCAC [U25C U54C U60A U80A] as the variant, how does the self-cleavage read?
Answer: 0.18

Question: For UAACAGGGGGCCACAGCAGAAGCGCUCACGUCGCAGCCCCUGUCAGAUUCUGGGGAAUCUGCGAACUCUGCUGUAUAUCUC [U25C U54G U66C], which self-cleavage is on record?
Answer: 0.02

Question: Which self-cleavage does the source give for UAACAGGGGGCCACAGCAGAAGCGCUCACGUCGCAGCCCCUGUCAGAUUCUGGUGAACCUGCGAGUUCUGCUGUAUAUCUC [U25C U58C A65G] here?
Answer: 0.16

Question: For UAACAGGGGGCCACAGCAGAAGCGCUCACGUCGCAGCCCCUGUCAGAUUCUGGUGAACCAGCGAAUUCUGCUAUAUAUCUC [U25C U58C U60A G73A], which self-cleavage is on record?
Answer: 0.2

Question: With UAACAGGGGGCCACAGCAGAAGCGCUCACGUCGCAGCCCCUGUCAGAUUCUGGUGAACCUGCGAAUUCAGCUGUAUAUCUC [U25C U58C U69A] as the variant, how does the self-cleavage read?
Answer: 0.24

Question: Which self-cleavage does the source give for UAACAGGGGGCCACAGCAGAAGCGCUCACGUCGCAGCCCCUGUCAGAUUCUGGUGAAUCAGCGAAUUCUGUUGUAUAUCUC [U25C U60A C71U] here?
Answer: 0.13

Question: With UAACAGGGGGCCACAGCAGAAGCGCUCACGUCGCAGCCCCUGUCAGAUUCUGGUGAAUCCGCGUAUUCCGCUGUAUAUCUC [U25C U60C A64U U69C] as the variant, how does the self-cleavage read?
Answer: 0.14

Question: With UAACAGGGGGCCACAGCAGAAGCGCUCACGUCGCAGCCCCUGUCAGAUUCUGGUGAAUCCGUGAAUUCUGCCGUGUAUCCC [U25C U60C C62U U72C A75G U80C] as the variant, how does the self-cleavage read?
Answer: 0.13

Question: Which self-cleavage does the source give for UAACAGGGGGCCACAGCAGAAGCGCUCACGUCGCAGCCCCUGUCAGAUUCUGGUGAAUCCGCGAAUUCUGCUGUAUAUAUC [U25C U60C C79A] here?
Answer: 0.08

Question: For UAACAGGGGGCCACAGCAGAAGCGCUCACGUCGCAGCCCCUGUCAGAUUCUGGUGAAUCUGCGAAUACUGCUGUAAAUCUC [U25C U67A U76A], which self-cleavage is on record?
Answer: 0.39

Question: With UAACAGGGGGCCACAGCAGAAGCGCUCACGUCGCAGCCCCUGUCAGAUUCUGGUGAAUCUGCGAAUUCCGCUGUAUAUCUA [U25C U69C C81A] as the variant, how does the self-cleavage read?
Answer: 0.47

Question: With UAACAGGGGGCCACAGCAGAAGCGCUCACGUCGCAGCCCCUGUCAGAUUCUGGUGAAUCUGCGAAUUCUGCAGUAUGUUUC [U25C U72A A77G C79U] as the variant, how does the self-cleavage read?
Answer: 0.07

Question: Which self-cleavage does the source give for UAACAGGGGGCCACAGCAGAAGCGCUCACGUCGCAGCCCCUGUCAGAUUCUGGUGAAUCUGCGAAUUCUGCUGCAUAUCCC [U25C U74C U80C] here?
Answer: 0.65
